According to PubChem BioAssay AID1688 (National Center for Advancing Translational Sciences (NCATS), 2009):
Hit rate of the full screen: of about 220,000 compounds, about 2,400 (1.1%) were called active. About 7% were inconclusive and are not listed. Calls follow the shape of the dose curve; as a rule, active = well fitted inhibition curve with a large enough effect; inconclusive = small, poorly fitted or top-dose-only effect, or effect the other way; inactive = no such curve, though single readings can be large or run the other way. The entries are a selection whose mix differs from that of the whole data set.
% is scaled to controls: 0 for no effect and ±100 for the full control effect; potency is read from the fitted curve at half-maximal effect.

Assay: qHTS Multiplex Assay to Identify Dual Action Probes in a Cell Model of Huntington: Aggregate Formation (GFP); also: nearly all actives have a fitted effect of over 60% in size
Details: PC12 HttQ103-GFP aggregates, Acumen cytometry, 40 h; series mostly up to 46.1 µM; activity change, negative = inhibition: at the top concentration
Procedure, shortened: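 Aggregate formation scored by laser-scanning cytometer (488 excitation, 500–530 emission) in lysed PC12 cells expressing Q103-GFP after 100 nM tebufenozide induction; library tested in dose series, with ATPLite reagent added in the multiplex.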
With `CNCCC=C1c2ccccc2CCc2ccccc21` the “activity change, negative = inhibition” value was inactive: -4.31%. In the case of `NC(=O)c1ncn([C@@H]2O[C@H](CO)[C@@H](O)[C@H]2O)c1O`, the “activity change, negative = inhibition” value is reported as inactive: 2.24%. For `O=C1CC(N2CCN(c3ccc(Cl)c(Cl)c3)CC2)C(=O)N1` (stereo not given), the Potency was active: 25.1 µM. In the case of `Cc1csc(Nc2ccccc2)[n+]1C`, the “activity change, negative = inhibition” value is reported as inactive: -11.3%. For `CN(C)c1cccc(NC2=CC(=[N+]3CCOCC3)CC(C)(C)C2)c1`, the “activity change, negative = inhibition” value was inactive: 3.48%. For `COC(C[C@H]1O[C@H]1[C@@H](O)[C@H](C)OCc1ccccc1)OC`, the activity change, negative = inhibition was inactive: 28.1% [at 9.22 µM]. In the case of `C=CCc1cc(OC)ccc1OCC(O)CN1CCN(c2ccc(OC)cc2)CC1` (stereo not given), the “activity change, negative = inhibition” value is reported as inactive: -5.71%. In the case of `CCN1C(=O)/C(=C\c2nc3ccccc3c(=O)n2-c2ccccc2)c2ccccc21`, the “activity change, negative = inhibition” value is reported as inactive: 13.7%. In the case of `CC(=O)Oc1cccc2c1C(=O)c1c(OC(C)=O)cc(C(=O)O)cc1C2=O`, the “activity change, negative = inhibition” value is reported as inactive: 13.7%. In the case of `CN(C)C(=N)N=C(N)N`, the “activity change, negative = inhibition” value is reported as inactive: 32.2% [at 20.6 µM]. In the case of `Cc1[nH]c2ccccc2c1C(=O)/C=C\c1ccccc1Cl`, the “activity change, negative = inhibition” value is reported as inactive: 30.7%. In the case of `O=C1NC(=O)/C(=C/c2ccccc2OCc2ccccc2)S1`, the “activity change, negative = inhibition” value is reported as inactive: -4.83%. With `COc1ccc2c(c1)C(=O)[C@@H](O)[C@H](c1ccc(OC)c(Br)c1)O2` the “activity change, negative = inhibition” value was inactive: -18.7%. For `O=C1S/C(=C\c2ccccc2)C(=O)N1CC(O)Cn1c2ccccc2c2ccccc21` (stereo not given), the “activity change, negative = inhibition” value was inactive: 13.5%. For `Cc1ccc(NS(=O)(=O)c2ccc(Cl)c(C(=O)Nc3ccccc3-c3nc4ccccc4[nH]3)c2)cc1C`, the Potency was active: 11.2 µM. With `COC(C[C@H]1O[C@@H]1[C@H](O)COCc1ccccc1)OC` the activity change, negative = inhibition was inactive: 15% [at 9.22 µM]. In the case of `Cc1cc(/C=C2/SC(=S)N(c3ccc([N+](=O)[O-])cc3)C2=O)c(C)n1-c1cccnc1`, the Potency is reported as active: 3.98 µM. With `COc1ccc(Cc2nnc(N/N=C/c3ccccc3O)[nH]c2=O)cc1OC` the Potency was active: 1.26 µM. In the case of `CCC(=O)N1CCc2cc(S(=O)(=O)Nc3ccc4c(c3)OCCO4)ccc21`, the Potency is reported as active: 7.94 µM. In the case of `Cc1ccccc1NCC(=O)N/N=C\c1ccc([N+](=O)[O-])s1`, the Potency is reported as active: 11.2 µM. For `CCOC(=O)/C(C#N)=C/c1ccc(OC)c(OC)c1`, the “activity change, negative = inhibition” value was inactive: -0.605%. With `CC(NCCC(c1ccccc1)c1ccccc1)c1ccccc1` (stereo not given) the “activity change, negative = inhibition” value was inactive: -26.4%. In the case of `COc1ccc(C/C(O)=C(\C#N)c2nc3ccccc3s2)cc1`, the Potency is reported as active: 12.6 µM. For `Cc1ccc(C(=O)N/C(=C/C=C/c2ccccc2)C(=O)NCc2ccco2)cc1`, the “activity change, negative = inhibition” value was inactive: -22%. With `CCO/C=C1\C(=O)N(CC)c2ccccc21` the “activity change, negative = inhibition” value was inactive: -28.8%.
